Molecules are shown by their SMILES. Hit rate of the full screen: of about 310,000 compounds, about 2,200 (0.71%) showed an effect of 50% or more. The effect is printed as a negative number. This is one part of the list.

Consider 44 compounds from PMC4336329 (PLoS ONE, 2015).

The target in this assay is human ether-à-go-go-related gene (hERG) potassium channel (human, UniProt Q12809). Briefly: primary screen, population patch clamp on CHO cells stably expressing hERG.
human ether-à-go-go-related gene (hERG) potassium channel, sequence (Q12809 whole entry, looked up): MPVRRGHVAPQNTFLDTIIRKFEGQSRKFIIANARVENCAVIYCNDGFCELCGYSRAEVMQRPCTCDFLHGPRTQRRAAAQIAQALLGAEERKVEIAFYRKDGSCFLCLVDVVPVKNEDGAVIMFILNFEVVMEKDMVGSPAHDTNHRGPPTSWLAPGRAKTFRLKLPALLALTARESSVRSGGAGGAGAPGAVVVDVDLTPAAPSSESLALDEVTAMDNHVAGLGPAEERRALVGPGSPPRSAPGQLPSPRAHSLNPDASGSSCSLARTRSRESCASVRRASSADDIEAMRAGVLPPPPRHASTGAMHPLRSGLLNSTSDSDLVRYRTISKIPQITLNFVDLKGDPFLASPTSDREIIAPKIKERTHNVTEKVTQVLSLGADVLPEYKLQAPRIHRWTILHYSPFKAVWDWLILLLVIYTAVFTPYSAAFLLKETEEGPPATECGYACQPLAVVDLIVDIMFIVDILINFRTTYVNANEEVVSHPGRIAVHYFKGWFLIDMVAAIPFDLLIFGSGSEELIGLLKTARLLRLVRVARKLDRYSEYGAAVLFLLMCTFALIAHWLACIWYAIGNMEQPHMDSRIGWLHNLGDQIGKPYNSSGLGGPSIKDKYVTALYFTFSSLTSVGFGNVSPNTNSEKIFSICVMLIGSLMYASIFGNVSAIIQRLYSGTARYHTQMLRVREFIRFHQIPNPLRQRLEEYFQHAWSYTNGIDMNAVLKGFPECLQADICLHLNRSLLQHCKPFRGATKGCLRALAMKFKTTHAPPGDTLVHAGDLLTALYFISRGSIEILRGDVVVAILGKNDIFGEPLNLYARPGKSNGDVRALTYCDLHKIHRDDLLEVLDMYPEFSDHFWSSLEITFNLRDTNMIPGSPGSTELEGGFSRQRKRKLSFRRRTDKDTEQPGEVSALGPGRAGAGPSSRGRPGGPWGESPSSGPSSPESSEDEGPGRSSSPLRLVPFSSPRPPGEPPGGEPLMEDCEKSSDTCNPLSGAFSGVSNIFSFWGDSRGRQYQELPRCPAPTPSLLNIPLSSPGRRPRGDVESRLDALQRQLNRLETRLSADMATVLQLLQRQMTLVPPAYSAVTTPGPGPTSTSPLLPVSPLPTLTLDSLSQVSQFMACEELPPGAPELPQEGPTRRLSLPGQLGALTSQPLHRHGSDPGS
On to `Cc1ccc(C(=O)N/C(=C\c2ccc(C(C)C)cc2)C(=O)NCCCN2CCOCC2)cc1`, for which the “hERG current change (%, negative = inhibition) at 1uM” value is -61.4%.
`CCCOc1ccc(NC(=O)CCC(=O)NC(C)c2ccccc2)cc1` (centres unmarked): the “hERG current change (%, negative = inhibition) at 1uM” value is given as 18.7%.
On to `Cc1nn(-c2ccccc2)c(Cl)c1C(=O)NC1CCCCC1`, for which the “hERG current change (%, negative = inhibition) at 1uM” value worked out at 13.2%.
For the compound `CC(=O)Nc1cccc(NC(=O)C2CC(=O)N(C3CCCCC3)C2)c1` (centres unmarked), the “hERG current change (%, negative = inhibition) at 1uM” value was found to be 0.859%.
In the case of `C=CCNc1nc(N(c2ccccc2)c2ccccc2)nc(-n2ccnc2)n1`, the “hERG current change (%, negative = inhibition) at 1uM” value came to 2.6%.
On to `Cc1cccc(NC(=O)C(=O)C2C(=O)Nc3ccccc32)c1` (centres unmarked), for which the “hERG current change (%, negative = inhibition) at 1uM” value is reported as 2.41%.
For `CC1CCCCC1NC(=O)COC(=O)c1cccn1C` (centres unmarked), the “hERG current change (%, negative = inhibition) at 1uM” value turned out to be 7.83%.
On to `C=C1CCC[C@]2(C)C[C@H]3OC(=O)C(CN[C@@H](C)c4ccccc4)[C@H]3CC12` (some centres unmarked), for which the “hERG current change (%, negative = inhibition) at 1uM” value was 9.34%.
Turning to `O=C(NCc1ccco1)C1CCCN(c2nnc(-n3cccc3)s2)C1` (centres unmarked), the “hERG current change (%, negative = inhibition) at 1uM” value was -5.96%.
Take `COc1ccc(O)c(-c2[nH]ncc2C(=O)c2cccc(C)c2)c1`: the “hERG current change (%, negative = inhibition) at 1uM” value is given as 14.5%.
For the compound `O=[N+]([O-])c1ccc(O)c(N=Cc2sc3ccccc3c2O)c1`, the “hERG current change (%, negative = inhibition) at 1uM” value was 7.29%.
With `O=C(NCC1CCCN(Cc2ccc3c(c2)OCCO3)C1)c1ccc2c(c1)OCO2` (centres unmarked) the figure was 3.91%; with `COc1ccc(N(CC(=O)Nc2cccc(C(C)=O)c2)S(=O)(=O)c2ccc(NC(C)=O)cc2)cc1`, 13.9%.
With `CCOc1c(Cl)cc(/C=N/O)cc1OC`, the “hERG current change (%, negative = inhibition) at 1uM” value amounted to 14.2%.
As for `O=C(CSc1oc(-c2ccccc2)nc1S(=O)(=O)c1ccccc1)NCC1CCCO1` (centres unmarked), the “hERG current change (%, negative = inhibition) at 1uM” value came to 17.8%.
With `Fc1ccc(C2=NN(c3ccccc3)C(c3ccco3)C2)cc1` (centres unmarked) the figure was 6.45%; with `COc1ccc(N2CCN(C(=O)c3cc4c(-c5ccc(Cl)cc5)nn(C)c4s3)CC2)cc1`, -2.22%.
Next, `O=C(Cc1ccc(S(=O)(=O)N2CCOCC2)s1)N1CCN(S(=O)(=O)c2cccc([N+](=O)[O-])c2)CC1`: 8.41%; `O=P(C(c1ccc2c(c1)OCO2)N1CCOCC1)(N1CCOCC1)N1CCOCC1` (centres unmarked): 9.69%.
Regarding `Brc1ccccc1/C=N/Nc1ccccn1`, the “hERG current change (%, negative = inhibition) at 1uM” value was found to be 13.9%.
With `CCOC(=O)CCC(NC(=O)c1ccccc1C(=O)NC(CCC(=O)OCC)C(=O)OCC)C(=O)OCC` (centres unmarked), the “hERG current change (%, negative = inhibition) at 1uM” value was -0.173%.
As to `C/C(=N/OC(=O)c1c(-c2c(F)cccc2Cl)noc1C)c1cnccn1`, the “hERG current change (%, negative = inhibition) at 1uM” value is 7.54%.
On to `CCCCCn1c(SCCc2ccccc2)nc2c1c(=O)[nH]c(=O)n2C`, for which the “hERG current change (%, negative = inhibition) at 1uM” value came out at 0.944%.
Consider `COc1ccc(N2CC(C(=O)OC(C)C(=O)c3ccccc3)CC2=O)cc1` (centres unmarked), for which the “hERG current change (%, negative = inhibition) at 1uM” value stood at 19.1%.
With `CS(=O)(=O)N(CC(=O)NCc1ccncc1)C1CCCCC1` the figure was 4.61%.
As for `CC(=O)N(CC(=O)Nc1sc(C)c(C)c1C(N)=O)Cc1ccccc1`, the “hERG current change (%, negative = inhibition) at 1uM” value was determined as 8.25%.
Regarding `CCC(C(=O)Nc1ncccn1)(C(F)(F)F)C(F)(F)F`, the “hERG current change (%, negative = inhibition) at 1uM” value was 10.6%.
With `Cc1ccc(NC(=O)CN2C(=O)NC3(CCC(C)CC3)C2=O)c(Cl)c1` (centres unmarked) the figure was 10.3%; with `CCCCCCSc1ccc([C@H]2N[C@@](CC(C)C)(C(=O)OC)[C@H]3C(=O)N(C)C(=O)[C@@H]23)cc1OC.O=C(O)C(F)(F)F`, -10%.
In the case of `CCOc1ccc2c(c1)-c1c(ssc1=S)C(C)(C)N2C(=O)c1ccco1`, the “hERG current change (%, negative = inhibition) at 1uM” value is 10.9%.
Take `Cc1ccc(S(=O)(=O)c2c(N)n(-c3ccccc3)c3nc4ccccc4nc23)cc1`: the “hERG current change (%, negative = inhibition) at 1uM” value was 14.2%.
For the compound `CC[C@@H](C)[C@H](NC(=O)Cc1c(C)c2c(cc(C)c3c(C)coc32)oc1=O)C(=O)O`, the “hERG current change (%, negative = inhibition) at 1uM” value turned out to be 11%.
`Cn1cc(CN2CCN(Cc3cccnc3)CC2)c(-c2ccc3c(c2)OCCO3)n1`: the “hERG current change (%, negative = inhibition) at 1uM” value is -1.66%.
As to `COc1ccc(NC(=O)N2CCCCC2)cc1`, the “hERG current change (%, negative = inhibition) at 1uM” value is -3.8%.
On to `Cc1ccc(NC(=O)C(=O)NCCN2CCN(S(C)(=O)=O)CC2)cc1`, for which the “hERG current change (%, negative = inhibition) at 1uM” value amounted to 8.89%.
With `CCOC(=O)C1=C(C)NC(=O)NC1c1ccc(-c2ccc(Cl)cc2)o1` (centres unmarked), the “hERG current change (%, negative = inhibition) at 1uM” value is recorded as 2.14%.
As for `CCc1c(C(=O)Nc2ccccc2C(N)=O)csc1C`, the “hERG current change (%, negative = inhibition) at 1uM” value came to 5.86%.
As to `C=CCSc1nc(N)c(C#N)c(-c2ccc(C)cc2)c1C#N`, the “hERG current change (%, negative = inhibition) at 1uM” value is given as 5.21%.
Next, `Cc1nc2ccc(NC(=S)N3CCOCC3)cc2nc1C`: 11.4%; `Cl.OCCN1CCN(CC(O)COc2ccc(-c3ccccc3)cc2)CC1` (centres unmarked): -13.5%.
Turning to `Cc1cc(C(=O)CSc2nnnn2-c2ccccc2)c(C)n1-c1ccc2c(c1)OCO2`, the “hERG current change (%, negative = inhibition) at 1uM” value was 5.36%.
For `CCN(CC)S(=O)(=O)c1ccc(N2CCOCC2)c(NS(=O)(=O)c2ccc(C(C)C)cc2)c1`, the “hERG current change (%, negative = inhibition) at 1uM” value stood at 5.31%.
On to `Nc1c(S(=O)(=O)c2cccs2)c2nc3ccccc3nc2n1CCc1ccccc1`, for which the “hERG current change (%, negative = inhibition) at 1uM” value came out at 3.16%.
On to `CN(C)S(=O)(=O)c1ccc(S(=O)(=O)N2CCCC(C(=O)NC3CC3)C2)cc1` (centres unmarked), for which the “hERG current change (%, negative = inhibition) at 1uM” value was determined as 13.9%.
